“And” between values parts separate entries of the source, which are not always exact repeats. Identical values can stand only once. Out of some 74,000 compounds screened, about 1,100 (1.5%) were called active. This list was built around the results that the source calls inconclusive (neither active nor inactive); the mix of calls is not that of the screen. Calls come from the whole dose curve; as a rule, active = well fitted inhibition curve with a large enough effect; inconclusive = small, poorly fitted or top-dose-only effect; inactive = no such curve, though single readings can be large or run the other way. No potency is given beside an inconclusive call; the fits are too rough. The source holds several records for some structures; these can differ, active in one and inactive in another.
biological target: Polyunsaturated fatty acid lipoxygenase ALOX15 (Homo sapiens) (UniProt P16050); assay: qHTS Assay for Inhibitors of 15-hLO (15-human lipoxygenase); details: purified 15hLO-1, xylenol orange hydroperoxide absorbance; activity change, negative = inhibition: at 57.1 µM (top of the series) unless noted; note: nearly all actives have a fitted effect of over 55% in size
Sequence of UniProt P16050 (P16050 whole entry, looked up): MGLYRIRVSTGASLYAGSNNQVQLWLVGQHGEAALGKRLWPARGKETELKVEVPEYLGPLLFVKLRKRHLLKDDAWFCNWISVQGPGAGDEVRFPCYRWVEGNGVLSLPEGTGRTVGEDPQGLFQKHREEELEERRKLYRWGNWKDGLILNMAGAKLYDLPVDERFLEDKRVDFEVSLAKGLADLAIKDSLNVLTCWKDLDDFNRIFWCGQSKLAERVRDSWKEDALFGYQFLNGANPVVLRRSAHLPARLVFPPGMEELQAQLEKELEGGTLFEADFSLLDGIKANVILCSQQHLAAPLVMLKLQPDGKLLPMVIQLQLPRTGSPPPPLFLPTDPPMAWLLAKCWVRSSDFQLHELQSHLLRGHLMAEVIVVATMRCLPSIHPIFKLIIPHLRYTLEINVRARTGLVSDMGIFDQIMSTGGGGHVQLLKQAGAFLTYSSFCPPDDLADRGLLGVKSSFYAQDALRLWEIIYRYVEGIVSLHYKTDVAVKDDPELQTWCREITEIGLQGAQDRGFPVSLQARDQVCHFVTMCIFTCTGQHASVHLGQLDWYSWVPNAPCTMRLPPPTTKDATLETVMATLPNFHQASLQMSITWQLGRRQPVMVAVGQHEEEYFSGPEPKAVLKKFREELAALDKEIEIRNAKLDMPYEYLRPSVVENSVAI
How it was run: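 Purified human 15hLO-1 (40 nM) in 25 mM Hepes pH 7.5, 0.01% Triton X-100, preincubated 15 min RT with compound, then 50 uM arachidonic acid for 6 min. Hydroperoxide read by ferrous/xylenol orange, 30 min; 573/405 nm absorbance ratio gave progress.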
% is set by controls: 0 for no effect and ±100 for the full control effect; potency is the fitted concentration of half-maximal effect; tags give direction and shape of the fitted curve.

SMILES	activity change, negative = inhibition	Potency
CC(=O)[C@@H]1CC[C@H]2[C@H]3CC[C@H]4C[C@@H](O)CC[C@]4(C)[C@@H]3CC[C@]12C	inactive: -8.29%	–
CC(=O)c1cccc(OCC(O)CN2CC=C(c3ccccc3)CC2)c1 (configuration not stated)	–	inconclusive [inhibitor, single point]
Cc1noc(C)c1C(=O)N1CCC2(CCCN(CC(C)C)C2)CC1	inactive: 0.385%	–
O=C1NO[C@H]2[C@@H]1CN[C@@H]2C(=O)O	–	inconclusive [inhibitor, single point]
CCOc1ccc2[nH]c(=O)c(CN(CCO)C3(c4nnnn4C4CCCCC4)CCCCC3)cc2c1	–	inconclusive [inhibitor, single point]
C=CCc1ccc(OC)cc1	–	inconclusive [inhibitor, single point]
Clc1nc(Cl)nc(Cl)n1	–	inconclusive [inhibitor, partial curve]
CC[C@H](C)C(=O)O[C@H]1C[C@H](O)C=C2C=C[C@H](C)[C@H](CC[C@@H](O)C[C@@H](O)CC(=O)O)[C@H]21	–	inconclusive [inhibitor, single point]
CCCCC1(C2CCCC2)Cc2cc(OCCCC(=O)O)c(Cl)c(Cl)c2C1=O (configuration not stated)	–	inconclusive [inhibitor, single point]
C[N+]12CCC(CC1)C(C#N)(N1CCOCC1)C2 (configuration not stated)	inactive: 7.28%	–
Nc1ccc(Cl)cc1N	–	inconclusive [inhibitor, partial curve]
O=C(O)[C@@H]1[C@H](C(=O)O)[C@]2(Cl)C(Cl)=C(Cl)[C@@]1(Cl)C2(Cl)Cl	–	active: 2.51 µM
N#CSCSC#N	inactive: 4.47%	–
CC12CCCCC1(O)[N+](=O)C1=C(CCCC1)N2[O-] (configuration not stated)	–	inconclusive [inhibitor, single point]
CCC(=Nc1ccc(OC)cc1OC)c1c(O)n(C2CCCCC2)c(=O)[nH]c1=O	–	inconclusive [inhibitor, partial curve]
Cc1ccc2c(c1)CC1(CN2C)C(=O)NC(=O)N(c2cc(C)ccc2C)C1=O (configuration not stated)	–	inconclusive [inhibitor, partial curve]
O=C(c1ccc2c(=O)n(Cc3ccc4c(c3)OCO4)c(=S)[nH]c2c1)N1CCC2(CC1)OCCO2	inactive: -18.4%	–
CO[C@@H]([CH2][Hg])CN1C(=O)c2ccccc2S1(=O)=O.Cn1c(=O)c2nc[nH]c2n(C)c1=O	–	inconclusive [inhibitor, partial curve]
COC(=O)[C@]1(C)CC[C@@]2(C)CC[C@@]3(C)C4=CC=C5C(=CC(=O)C(O)=C5C)[C@@]4(C)CC[C@@]3(C)C2C1 (some centres not stated)	–	active: 2 µM
CN1C[C@H](C(=O)N[C@]2(C)O[C@@]3(O)[C@@H]4CCCN4C(=O)[C@H](Cc4ccccc4)N3C2=O)C=C2c3cccc4[nH]cc(c34)C[C@H]21	–	active: 2.51 µM
Cc1cc(OCC(=O)OC(C)C)c2c3c(c(=O)oc2c1)CCCC3	inactive: -12.8%	–
NNCc1cccc(O)c1	–	inconclusive [inhibitor, partial curve]
Cc1ccc(N)c(N)c1	–	inconclusive [inhibitor, partial curve]

SMILES	activity change, negative = inhibition	Potency
Cc1ccccc1C1=NCC(=O)N(CC(=O)NCc2ccco2)c2sc3c(c21)CCCC3	–	active: 25.1 µM
CCCCCCC(C)(C)c1ccc([C@@H]2C[C@H](O)CC[C@@H]2CCCO)c(O)c1	–	inconclusive [inhibitor, partial curve]
O=C(Cl)c1ccccc1F	–	inconclusive [inhibitor, partial curve]
OC(COCc1ccc(Cl)cc1)CN1CC=C(c2ccccc2)CC1 (configuration not stated)	–	inconclusive [inhibitor, single point]
CCC(=NCc1ccco1)c1c(O)n(C2CCCCC2)c(=O)[nH]c1=O	–	inconclusive [inhibitor, single point]
CN[C@@H](C)[C@@H](O)c1ccccc1	–	active: 0.398 µM
C[C@@]12CC[C@H]3[C@@H](CCC4=C(O)C(=O)CC[C@]43C)[C@H]1CCC2=O	inactive: -15.3%	–
O=C(O)C1=CCCN(CCOC(c2ccc(C(F)(F)F)cc2)c2ccc(C(F)(F)F)cc2)C1	–	inconclusive [inhibitor, single point]
CN(C=O)CP(=O)(O)CN(C)C=O	–	inconclusive [inhibitor, single point]
CC(C)c1cccc(O)c(=O)c1	–	inconclusive [inhibitor, single point]
C=CCSSCC=C	–	inconclusive [inhibitor, single point]
NCC(CC(=O)O)c1ccc(Cl)cc1 (configuration not stated)	–	inactive
CCOC(=O)CC(SP(=S)(OC)OC)C(=O)OCC (configuration not stated)	–	inconclusive [inhibitor, full curve, poor fit]
Cn1c(=O)c2[nH]cnc2n(C)c1=O.[CH2-][C@H](Cc1cccc2cc(C(=O)O)c(=O)oc12)OC.[Hg].[OH-]	–	inconclusive [inhibitor, partial curve, poor fit]
COC(=O)[C@H]1[C@@H](c2ccccc2)[C@@]2(c3ccccc3)Oc3ccccc3[C@@]1(O)[C@@H]2O	–	inconclusive [inhibitor, partial curve]
O=c1[nH]cnc2[nH]cc(CN3CCCCC3)c12	–	inconclusive [inhibitor, single point]
C=CC1CC=CCC1 (configuration not stated)	–	active: 31.6 µM
CSC([N-]/N=C/c1cccc(C)n1)=[S]=[Cu].CS[C@H]([S-])[N-]/N=C/c1cccc(C)n1	–	inconclusive [inhibitor, partial curve]
O=C(CN1C(=O)COc2ccc(Cl)cc21)Nc1ccc2c(c1)OCCO2	–	inconclusive [inhibitor, partial curve]
O=C1Nc2ccccc2C2(CCN(CCc3ccc(C(F)(F)F)cc3)CC2)O1	–	inconclusive [inhibitor, single point]
Oc1c(Br)c(Br)c(Br)c(Br)c1Br	–	inconclusive [inhibitor, partial curve, poor fit]
C[C@H]1[C@@H](O)[C@@H](C)/C=C\C=CCC\C=C/C=C\C=C/C=C[C@@H](O[C@H]2O[C@@H](C)[C@@H](O)[C@@H](N)[C@@H]2O)C[C@@H]2O[C@@](O)(C[C@@H](O)[C@H]2C(=O)O)C[C@@H](O)[C@@H](O)CC[C@@H](O)C[C@@H](O)C[C@@H](O)CC(=O)O[C@H]1C	–	active: 7.94 µM
CCCN(CCC)C1Cc2cc(OC)c(OC)cc2C1	–	inconclusive [inhibitor, partial curve, poor fit]

SMILES	activity change, negative = inhibition	Potency
O=c1c2ccccc2[se]n1-c1ccccc1	–	active: 63.1 nM and active: 398 nM
CC1=CC[C@@H]2[C@@H](C1)c1c(O)cc(CC#CCCCNS(C)(=O)=O)cc1OC2(C)C	–	inconclusive [inhibitor, partial curve]
CN1CC[C@@H]2CN3CCc4cccc(c43)[C@H]2C1	–	active: 12.6 µM
C[C@]1(O)CC[C@H]2[C@@H]3[C@@H](O)CC4=CC(=O)CC[C@@]4(C)[C@H]3CC[C@]21C	inactive: 3.62% [at 11.4 µM]	–
C/C=C(\C)C(=O)O[C@@H]1C(C)=C2[C@H]([C@@H]1OC(=O)CCCCCCC)[C@@](C)(OC(C)=O)C[C@@H](OC(=O)CCC)[C@@]1(O)[C@H]2OC(=O)[C@]1(C)O	–	active: 20 µM
Cc1ccccc1-n1c(O)c(C=Nc2ccc3c(c2)OCO3)c(=O)[nH]c1=O	–	inconclusive [inhibitor, single point]
NCC(O)c1ccc(O)cc1 (configuration not stated)	–	inconclusive [inhibitor, single point]
O=C1CN=C(c2cccs2)c2c(sc3c2CCCC3)N1	–	active: 15.8 µM
N#CS.N=C=S.N=C=S.[Cu].[NH2-].[NH2-].[NH2-].[NH2-].c1ccc2ncccc2c1	–	active: 2.51 µM
CC[C@]1(OC(=O)CN)C(=O)OCc2c1cc1n(c2=O)Cc2cc3ccccc3nc2-1	inactive: 11.4% [at 11.4 µM]	–
O=C(C1CCCCC1)N1CCC(c2nc3c(nnn3Cc3c(F)cccc3Cl)c(=O)[nH]2)CC1	–	inconclusive [inhibitor, partial curve]
CC(C)NCC(O)COc1cccc2[nH]ccc12 (configuration not stated)	–	inconclusive [inhibitor, single point]
[Cl-].[Cl-].[Hg+2]	–	active: 0.0126 µM
CC(=O)OCC1=C(C(=O)[O-])N2C(=O)[C@@H](NC(=O)CCC[C@@H](N)C(=O)[O-])[C@@H]2SC1.[Zn+2]	–	active: 25.1 µM
C[C@]12N[C@@H](Cc3ccccc31)c1ccccc12	–	inconclusive [inhibitor, single point]
COP(=O)(OC)OC=C(Cl)Cl	–	inconclusive [inhibitor, single point]
CC(=O)c1c(O)c(C)c(O)c(Cc2c(O)c3c(c(C(=O)/C=C\c4ccccc4)c2O)OC(C)(C)C=C3)c1O	–	inconclusive [inhibitor, single point]
N#CC(C#N)=Cc1ccc(O)c(O)c1	–	inconclusive [inhibitor, full curve, poor fit]
C=C(C)[C@H]1Cc2c(ccc3c2O[C@H]2COc4cc(OC)c(OC)cc4[C@@H]2C3=O)O1	inactive: -15.1%	–
Oc1cc2c(cc1O)[C@H]1c3ccccc3CN[C@H]1CC2	inactive: 1.2% [at 25.6 µM]	–
O[N+]1=CC=CCC1=S.On1ccccc1=S.[Zn]	–	active: 2.51 µM

From PubChem BioAssay AID887 (National Center for Advancing Translational Sciences (NCATS), 2007)
